This is one part of the list. The list includes weakly bound sequences.
Molecular target: MaxL homodimer (UniProt P61244)
Assay: universal protein-binding microarray (PBM)
Conditions: PBS-based mixture, 10 nM His-tagged protein dimer, 2% milk, 200 ng/uL BSA, 50 ng/uL salmon testes DNA, 0.02% TX-100; detection with Alexa 488 anti-His …; high values mean tight binding; most listed sequences are background and not binding sites; double strand, one strand shown

UniProt P61244, sequence (P61244 whole entry): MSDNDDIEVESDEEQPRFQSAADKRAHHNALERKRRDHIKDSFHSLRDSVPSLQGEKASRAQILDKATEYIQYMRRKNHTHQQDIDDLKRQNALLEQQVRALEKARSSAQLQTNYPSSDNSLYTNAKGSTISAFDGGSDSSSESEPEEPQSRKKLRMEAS

Sequence | binding signal (normalized occupancy)
AACTTAAA | 0.0737
GGCGGGTA | 0.0717
CGGGCCGC | 0.0695
ATGGGGGA | 0.0883
GATTGGCC | 0.0718
ATTCTCGG | 0.0684
AGGCTACT | 0.0703
CGCAAGTA | 0.0753
ATACGCGG | 0.0737
ATACACTA | 0.0782
AACGACGA | 0.066
GTGGGAAC | 0.0793
AATTCTGT | 0.0728
CGTGTCAG | 0.0836
CCGGCATA | 0.0739
TGTTGCAA | 0.0777
TAATCATA | 0.083
TCTCGCAA | 0.0719
CCGCTTCG | 0.0724
CCCAGCTC | 0.07
AAATCATC | 0.0766
CTTTCAAC | 0.0766
GCTAGTAA | 0.0712
TATACACA | 0.0878
CGGTATGA | 0.0797

Sequence | binding signal (normalized occupancy)
CATCATCC | 0.0857
TACTAGGA | 0.0746
ACGGGGAA | 0.0731
CTGTAAGC | 0.0743
CGCAGACG | 0.0715
CTCTTTGC | 0.0727
AAAGCCGA | 0.0686
AGTTACCG | 0.0727
CGACTCTA | 0.0706
ATTTTATG | 0.0765
GGGATTAC | 0.0757
GAGCGCCC | 0.0681
ATTAGGCA | 0.0745
CTATTTTA | 0.076
CAGCTAGG | 0.0679
GTTCTTTA | 0.0744
TGAATGCA | 0.0803
AACCGGTT | 0.0671
GCCTGCTA | 0.0731
GTCATTAA | 0.0778
GCGTCATA | 0.0757
AGGCCTAA | 0.0731
CACTGTGC | 0.0763
AAGTGCCC | 0.0681
ACGGTGGA | 0.0765

Sequence | binding signal (normalized occupancy)
TGTTACAA | 0.0777
ACCGATCC | 0.0719
ACTTCTGC | 0.0739
AAATGAAT | 0.0799
CTTGCCTC | 0.0729
AGCGTGAG | 0.091
GCTCTGCC | 0.068
TAGTTCAA | 0.0704
TCGGATAA | 0.0744
TATCTGAA | 0.0761
CCACTACG | 0.0744
GCACCCTA | 0.0771
GAGATGAC | 0.0732
AGAGAATA | 0.0764
ACACGTCT | 0.0781
CGACCTAC | 0.0709
ATGGACAA | 0.0766
ACCTGACT | 0.0799
ATCTTTTG | 0.0753
CCTAGTCA | 0.077
AAAGACCC | 0.0703
GATGCGCC | 0.0717
ATTCGTCA | 0.0752
CTGTCAAA | 0.0735
AAACCCGG | 0.0665

Sequence | binding signal (normalized occupancy)
ACCACATC | 0.0807
ACTCTCCT | 0.0789
CGCCCTAG | 0.0675
ATGGCGAA | 0.0789
ATAGAATC | 0.0826
TATTTAGA | 0.0735
CCCAGCTA | 0.0687
ATGTAGAG | 0.078
GATATTTA | 0.0766
ACGTCATC | 0.0802
CACAAATA | 0.0727
AGTAAAAA | 0.0773
CGTGGTAC | 0.0934
GCACATCC | 0.0791
ATGTCATG | 0.0866
AAATGCAT | 0.079
GAACTAGA | 0.069
CGACTGCA | 0.0704
CTCCTTGA | 0.0735
GTCTCGTA | 0.0768
CGTGCACA | 0.0958
GCCAAGCC | 0.0753
ACCAGTTC | 0.0667
AGGTCTGA | 0.0732
AGGTGTAC | 0.0803

Sequence | binding signal (normalized occupancy)
ATCTCCTA | 0.0754
AACATCGG | 0.0691
CTTTTCTA | 0.0766
GCACTCAA | 0.0759
CATTCTTA | 0.0756
AGGGGACT | 0.0713
AAGGCGAT | 0.0724
AGCGGGAC | 0.0637
ATGGCAGG | 0.0815
CTAGTGAC | 0.0735
GACCGTAC | 0.0783
AGACGGCC | 0.0683
GCAATAAA | 0.0711
AATCCAAT | 0.0779
GTCTGAAA | 0.0699
GGCACCAC | 0.0771
ACGACGGC | 0.0726
ACCTCAGT | 0.0682
ACGGATTA | 0.0759
CATTCGAC | 0.0729
ACATGTTC | 0.0965
TCTTTTAA | 0.069
CACCACAG | 0.0703
AAAACTCT | 0.0689
CCGGGTGA | 0.0737

Sequence | binding signal (normalized occupancy)
AGTGCATA | 0.0847
CTCTGGTC | 0.0704
ACGACTTC | 0.0722
AATAGCGT | 0.0809
AGGCTAAC | 0.0752
AGGTCCCG | 0.0661
CATTGTAC | 0.0815
AGTTTTCC | 0.0682
CGACACCA | 0.0728
AAAAGTAA | 0.0732
ACAAATTA | 0.0784
TAAACGCA | 0.0757
CTAAAAGA | 0.0757
CAAAAATC | 0.0745
GCAGACGA | 0.0777
AATCTACT | 0.073
GTTATCTA | 0.0754
CCCGTATA | 0.0781
CATTTTGG | 0.0785
CAATGTAA | 0.0768
CATTTTCC | 0.0796
CATTCCCC | 0.075
CGAGGTCA | 0.0798
AGCCTGTC | 0.0723
ACCATCAG | 0.0758

Sequence | binding signal (normalized occupancy)
GAGAGATA | 0.0773
GAACAGCC | 0.075
AAGTAGAA | 0.0767
CGCTCATA | 0.077
AGGAGCAA | 0.0681
AGTCGAGG | 0.0658
AGCAGAAC | 0.0709
CAGTATCC | 0.0765
ATAACACA | 0.0874
AGCAAGCT | 0.0661
CGTTGGCC | 0.0726
CCCGTTAA | 0.0727
GACGCTAA | 0.0729
AAGGATAG | 0.073
CCGAGGGC | 0.067
GACGGTTA | 0.0748
CTATCCTC | 0.0776
AGCCGGGG | 0.065
TGTATCAA | 0.0798
CAGCACGG | 0.0854
CCTCCGAA | 0.071
ATCGGGTG | 0.0771

Source: PMC4242493
